From publication PMC9911399, “Two distinct binding modes provide the RNA-binding protein RbFox with extraordinary sequence specificity” come the findings set out here.

Where a chain is given by its changes, count along the chain named. Some of the results follow.

T1: RBFOX1 RRM (Homo sapiens, UniProt Q9NWB1 109-208)
T1 sequence: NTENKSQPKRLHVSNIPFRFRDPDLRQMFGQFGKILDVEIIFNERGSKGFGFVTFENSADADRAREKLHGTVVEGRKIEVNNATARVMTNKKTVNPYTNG

B1: AGUCGCU (DNA:RNA)
RNA: GGGAGACCGGAAUUCAGAUUGUCCAGUCGCUUUAAAUCCCGUCGUAGCCACCA
DNA 1: CAATCTGAATTCCGGTCTCCC
DNA 2: TGGTGGCTACGACGGGATT
B2: CGCUCGG (DNA:RNA)
RNA: B1 RNA with A25C, U27C, C28U, G29C, C30G, U31G
DNA 1: CAATCTGAATTCCGGTCTCCC
DNA 2: TGGTGGCTACGACGGGATT
B3: GGCUAAU (DNA:RNA)
RNA: B1 RNA with A25G, U27C, C28U, G29A, C30A
DNA 1: CAATCTGAATTCCGGTCTCCC
DNA 2: TGGTGGCTACGACGGGATT
B4: UAAGCGG (DNA:RNA)
RNA: GGGAGACCGGAAUUCAGAUUGUCCUAAGCGGUUAAAUCCCGUCGUAGCCACCA
DNA 1: CAATCTGAATTCCGGTCTCCC
DNA 2: TGGTGGCTACGACGGGATT
B5: AAGGUCG (DNA:RNA)
RNA: B4 RNA with U25A, A27G, C29U, G30C
DNA 1: CAATCTGAATTCCGGTCTCCC
DNA 2: TGGTGGCTACGACGGGATT
B6: GUGCUCA (DNA:RNA)
RNA: B1 RNA with A25G, G26U, U27G, G29U, U31A
DNA 1: CAATCTGAATTCCGGTCTCCC
DNA 2: TGGTGGCTACGACGGGATT
B7: UACUUUG (DNA:RNA)
RNA: B4 RNA with A27C, G28U, C29U, G30U
DNA 1: CAATCTGAATTCCGGTCTCCC
DNA 2: TGGTGGCTACGACGGGATT
B8: GCUCGCU (DNA:RNA)
RNA: B1 RNA with A25G, G26C
DNA 1: CAATCTGAATTCCGGTCTCCC
DNA 2: TGGTGGCTACGACGGGATT
B9: ACCACCA (DNA:RNA)
RNA: B1 RNA with G26C, U27C, C28A, G29C, U31A
DNA 1: CAATCTGAATTCCGGTCTCCC
DNA 2: TGGTGGCTACGACGGGATT
B10: CCCUGCC (DNA:RNA)
RNA: B1 RNA with A25C, G26C, U27C, C28U, U31C
DNA 1: CAATCTGAATTCCGGTCTCCC
DNA 2: TGGTGGCTACGACGGGATT
B11: UUAACGU (DNA:RNA)
RNA: B4 RNA with A26U, G28A, G31U
DNA 1: CAATCTGAATTCCGGTCTCCC
DNA 2: TGGTGGCTACGACGGGATT
B12: GGUGCCU (DNA:RNA)
RNA: B1 RNA with A25G, C28G, G29C
DNA 1: CAATCTGAATTCCGGTCTCCC
DNA 2: TGGTGGCTACGACGGGATT
B13: GGCGUUC (DNA:RNA)
RNA: B1 RNA with A25G, U27C, C28G, G29U, C30U, U31C
DNA 1: CAATCTGAATTCCGGTCTCCC
DNA 2: TGGTGGCTACGACGGGATT
B14: GUAGUUC (DNA:RNA)
RNA: B4 RNA with U25G, A26U, C29U, G30U, G31C
DNA 1: CAATCTGAATTCCGGTCTCCC
DNA 2: TGGTGGCTACGACGGGATT
B15: GCCCUAU (DNA:RNA)
RNA: B1 RNA with A25G, G26C, U27C, G29U, C30A
DNA 1: CAATCTGAATTCCGGTCTCCC
DNA 2: TGGTGGCTACGACGGGATT
B16: AGUCAAG (DNA:RNA)
RNA: B1 RNA with G29A, C30A, U31G
DNA 1: CAATCTGAATTCCGGTCTCCC
DNA 2: TGGTGGCTACGACGGGATT
B17: GUGUUAU (DNA:RNA)
RNA: B1 RNA with A25G, G26U, U27G, C28U, G29U, C30A
DNA 1: CAATCTGAATTCCGGTCTCCC
DNA 2: TGGTGGCTACGACGGGATT
B18: AAAAAUC (DNA:RNA)
RNA: B4 RNA with U25A, G28A, C29A, G30U, G31C
DNA 1: CAATCTGAATTCCGGTCTCCC
DNA 2: TGGTGGCTACGACGGGATT
B19: GGCCAGU (DNA:RNA)
RNA: B1 RNA with A25G, U27C, G29A, C30G
DNA 1: CAATCTGAATTCCGGTCTCCC
DNA 2: TGGTGGCTACGACGGGATT
B20: AUCACUC (DNA:RNA)
RNA: B1 RNA with G26U, U27C, C28A, G29C, C30U, U31C
DNA 1: CAATCTGAATTCCGGTCTCCC
DNA 2: TGGTGGCTACGACGGGATT

The experiment addresses T1, RBFOX1 RRM. Put plainly: EMSA; HiTS-Eq, 1 nM pool, 10 min; buffer printed only for the single-RNA assays: 10 mM Tris pH 7.5, 150 mM NaCl, 3.4 mM EDTA, 0.001% NP-40, 30 C. The conditions noted are these: tags: His6 N-terminal (pET28a); label: 5' 32P. A digest of the protocol:
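A pool of RNA with 7 randomized nucleotides, 5′-radiolabelled and with DNA-annealed flanks, was equilibrated at 1 nM for 10 min in 50 µL with purified RbFox RRM, wild type or mutant, across increasing protein concentrations. Free RNA was separated by 8% native PAGE, excised, reverse-transcribed, barcoded by PCR and sequenced. Relative association constants were obtained from read-count changes of each RNA species versus the control reaction and normalised to the cognate motif.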
In general terms: A gel shift assay detects complexes by their altered migration in electrophoresis.
In the case of B1, the binding signal is 0.00547 KA relative to UGCAUGU.

With B2, the binding signal is 0.0166 KA relative to UGCAUGU.

As to B3, the binding signal is 0.00988 KA relative to UGCAUGU.

For the molecule B4, the binding signal is 0.00981 KA relative to UGCAUGU.

On to B5, for which the binding signal is 0.0162 KA relative to UGCAUGU.

For the molecule B6, the binding signal was 0.0136 KA relative to UGCAUGU.

In the case of B7, the binding signal is 0.0222 KA relative to UGCAUGU.

As to B8, the binding signal is 0.0215 KA relative to UGCAUGU.

For the molecule B9, the binding signal is 0.00167 KA relative to UGCAUGU.

On to B10, for which the binding signal was 0.00271 KA relative to UGCAUGU.

B11: the binding signal was 0.00938 KA relative to UGCAUGU.

With B12, the binding signal was 0.0102 KA relative to UGCAUGU.

For B13, the binding signal is 0.0182 KA relative to UGCAUGU.

Consider B14, for which the binding signal is 0.0153 KA relative to UGCAUGU.

Turning to B15, the binding signal is 0.00858 KA relative to UGCAUGU.

For the molecule B16, the binding signal is 0.00432 KA relative to UGCAUGU.

Take B17: the binding signal was 0.00996 KA relative to UGCAUGU.

Take B18: the binding signal was 0.000917 KA relative to UGCAUGU.

With B19, the binding signal was 0.0163 KA relative to UGCAUGU.

Regarding B20, the binding signal is 0.000499 KA relative to UGCAUGU.
